# Experimental data published in the supplement of paper PMC8728848.
# Some of the results follow.
# B1: GS14009A-pdi-495-27-495 (Parabacteroides distasonis) (protein)
# chain: FEEVNTDPDSPTDVPTTNLLAYSLYYTSYRLYDRWFAMDEPMTFCGYASKMTYIDESRYNFRTGVQDTNWEYLYRILNNLKDIEKRATFNETPNMLNVSKVMQVHLMQVATDRWRDVPYTDAAKMTDGILQPKYDKQEDIYPGLLATLKEAADGFADGGSDDLGEGDLLFGGDIEKWQRYCNSMRLRLAMRISEVSPALAKETVEEVMGNPTKYPIMESNDDNAFFWWIGTDPNYYEPMADGYRTRKTEYCAADVIVDHMNTREDPRRSSYFQPTKESVEAGEPKYVGYTIGAKANAVASKYSIWGARFFTDLAGFSPYMRVAEPWFCVAEASMLGWNTGISAEDAYNKAVTYSMEENSVSAEDIADYLANAGKFTNDKKQIYYEEWVAMFKQGMEGWSLYRRTGVPDNLYPAPGRPANYSNHNVPPFRSPYPDKERNLNNANCAPFDAEVVDNLWGKQMWWDTRTGVH
# Legend:
# Test in all cases: glycan array binding signal (z-score within array); higher = stronger binding
# Settings in all cases: glycan notation: IUPAC condensed, linker removed
# [1] = target: Fuc(a1-2)Gal
# Procedure, shortened: (§1)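 Glycan array data came from 3228 arrays in the Consortium for Functional Glycomics database, and only arrays with an available protein sequence were kept. Glycan names were put into IUPAC-condensed notation, and columns mapping to the same glycan were averaged. The binding signal is a within-array Z-score, averaged across arrays of one protein sequence run at different concentrations or buffers and across linkers. A negative Z-score can be read as non-binding.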
# [2] = target: Fuc(a1-2)Gal(b1-3)GalNAc
# Procedure, shortened: as §1
# [3] = target: Fuc(a1-2)Gal(b1-3)GalNAc(a1-3)[Fuc(a1-2)]Gal(b1-4)Glc
# Procedure, shortened: as §1
# [4] = target: Fuc(a1-2)Gal(b1-3)GalNAc(a1-3)[Fuc(a1-2)]Gal(b1-4)GlcNAc
# Procedure, shortened: as §1
# [5] = target: Fuc(a1-2)Gal(b1-3)GalNAc(b1-3)Gal
# Procedure, shortened: as §1
# [6] = target: Fuc(a1-2)Gal(b1-3)GalNAc(b1-3)Gal(a1-4)Gal(b1-4)Glc
# Procedure, shortened: as §1
# [7] = target: Fuc(a1-2)Gal(b1-3)GalNAc(b1-4)[Neu5Ac(a2-3)]Gal(b1-4)Glc
# Procedure, shortened: as §1
# [8] = target: Fuc(a1-2)Gal(b1-3)GlcNAc
# Procedure, shortened: as §1
# [9] = target: Fuc(a1-2)Gal(b1-3)GlcNAc(b1-2)Man(a1-3)[Fuc(a1-2)Gal(b1-3)GlcNAc(b1-2)Man(a1-6)]Man(b1-4)GlcNAc(b1-4)GlcNAc
# Procedure, shortened: as §1
# [10] = target: Fuc(a1-2)Gal(b1-3)GlcNAc(b1-2)Man(a1-3)[Fuc(a1-2)Gal(b1-3)GlcNAc(b1-2)Man(a1-6)]Man(b1-4)GlcNAc(b1-4)[Fuc(a1-6)]GlcNAc
# Procedure, shortened: as §1
# [11] = target: Fuc(a1-2)Gal(b1-3)GlcNAc(b1-3)Gal(b1-4)Glc
# Procedure, shortened: as §1
# [12] = target: Fuc(a1-2)Gal(b1-3)GlcNAc(b1-3)GalNAc
# Procedure, shortened: as §1
# [13] = target: Fuc(a1-2)Gal(b1-3)GlcNAc(b1-3)[Fuc(a1-2)Gal(b1-3)GlcNAc(b1-6)]GalNAc
# Procedure, shortened: as §1
# [14] = target: Fuc(a1-2)Gal(b1-3)GlcNAc(b1-3)[Gal(b1-4)GlcNAc(b1-6)]Gal(b1-4)Glc
# Procedure, shortened: as §1
# [15] = target: Fuc(a1-2)Gal(b1-3)GlcNAc(b1-3)[Neu5Ac(a2-6)Gal(b1-4)GlcNAc(b1-6)]Gal(b1-4)Glc
# Procedure, shortened: as §1
# [16] = target: Fuc(a1-2)Gal(b1-3)GlcNAc6S
# Procedure, shortened: as §1
# [17] = target: Fuc(a1-2)Gal(b1-3)[Fuc(a1-4)]GlcNAc
# Procedure, shortened: as §1
# [18] = target: Fuc(a1-2)Gal(b1-3)[Fuc(a1-4)]GlcNAc(b1-2)Man(a1-3)[Fuc(a1-2)Gal(b1-3)[Fuc(a1-4)]GlcNAc(b1-2)Man(a1-3)]Man(b1-4)GlcNAc(b1-4)GlcNAc
# Procedure, shortened: as §1
# [19] = target: Fuc(a1-2)Gal(b1-3)[Fuc(a1-4)]GlcNAc(b1-2)Man(a1-3)[Fuc(a1-2)Gal(b1-3)[Fuc(a1-4)]GlcNAc(b1-2)Man(a1-6)]Man(b1-4)GlcNAc(b1-4)[Fuc(a1-6)]GlcNAc(b1-4)[Fuc(a1-6)]GlcNAc
# Procedure, shortened: as §1
# [20] = target: Fuc(a1-2)Gal(b1-3)[Fuc(a1-4)]GlcNAc(b1-3)[Fuc(a1-3)[Gal(b1-4)]GlcNAc(b1-6)]Gal(b1-4)Glc
# Procedure, shortened: as §1
# [21] = target: Fuc(a1-2)Gal(b1-3)[Fuc(a1-4)]GlcNAc(b1-3)[Gal(b1-4)GlcNAc(b1-6)]Gal(b1-4)Glc
# Procedure, shortened: as §1
# [22] = target: Fuc(a1-2)Gal(b1-4)Glc
# Procedure, shortened: as §1
# [23] = target: Fuc(a1-2)Gal(b1-4)Glc6S
# Procedure, shortened: as §1
# [24] = target: Fuc(a1-2)Gal(b1-4)GlcNAc
# Procedure, shortened: as §1
# [25] = target: Fuc(a1-2)Gal(b1-4)GlcNAc(b1-2)Man
# Procedure, shortened: as §1
# [26] = target: Fuc(a1-2)Gal(b1-4)GlcNAc(b1-2)Man(a1-3)[Fuc(a1-2)Gal(b1-4)GlcNAc(b1-2)Man(a1-6)]Man(b1-4)GlcNAc(b1-4)GlcNAc
# Procedure, shortened: as §1
# [27] = target: Fuc(a1-2)Gal(b1-4)GlcNAc(b1-2)Man(a1-3)[Fuc(a1-2)Gal(b1-4)GlcNAc(b1-2)Man(a1-6)]Man(b1-4)GlcNAc(b1-4)[Fuc(a1-6)]GlcNAc
# Procedure, shortened: as §1
# [28] = target: Fuc(a1-2)Gal(b1-4)GlcNAc(b1-2)[Fuc(a1-2)Gal(b1-4)GlcNAc(b1-4)]Man(a1-3)[Fuc(a1-2)Gal(b1-4)GlcNAc(b1-2)Man(a1-6)]Man(b1-4)GlcNAc(b1-4)GlcNAc
# Procedure, shortened: as §1
# [29] = target: Fuc(a1-2)Gal(b1-4)GlcNAc(b1-3)Gal(b1-4)GlcNAc
# Procedure, shortened: as §1
# [30] = target: Fuc(a1-2)Gal(b1-4)GlcNAc(b1-3)Gal(b1-4)GlcNAc(b1-2)Man(a1-3)[Fuc(a1-2)Gal(b1-4)GlcNAc(b1-3)Gal(b1-4)GlcNAc(b1-2)Man(a1-6)]Man(b1-4)GlcNAc(b1-4)GlcNAc
# Procedure, shortened: as §1
# [31] = target: Fuc(a1-2)Gal(b1-4)GlcNAc(b1-3)Gal(b1-4)GlcNAc(b1-3)Gal(b1-4)GlcNAc
# Procedure, shortened: as §1
# [32] = target: Fuc(a1-2)Gal(b1-4)GlcNAc(b1-3)GalNAc
# Procedure, shortened: as §1
# [33] = target: Fuc(a1-2)Gal(b1-4)GlcNAc(b1-3)[Fuc(a1-2)Gal(b1-4)GlcNAc(b1-6)]GalNAc
# Procedure, shortened: as §1
# [34] = target: Fuc(a1-2)Gal(b1-4)GlcNAc(b1-3)[Fuc(a1-3)[Gal(b1-4)]GlcNAc(b1-6)]Gal(b1-4)Glc
# Procedure, shortened: as §1
# [35] = target: Fuc(a1-2)Gal(b1-4)GlcNAc(b1-6)GalNAc
# Procedure, shortened: as §1
# [36] = target: Fuc(a1-2)Gal(b1-4)GlcNAc6S
# Procedure, shortened: as §1
# [37] = target: Fuc(a1-2)Gal(b1-4)[Fuc(a1-3)]GlcNAc
# Procedure, shortened: as §1
# [38] = target: Fuc(a1-2)Gal(b1-4)[Fuc(a1-3)]GlcNAc(b1-2)Man(a1-3)[Fuc(a1-2)Gal(b1-4)[Fuc(a1-3)]GlcNAc(b1-2)Man(a1-6)]Man(b1-4)GlcNAc(b1-4)[Fuc(a1-6)]GlcNAc
# Procedure, shortened: as §1
# [39] = target: Fuc(a1-2)Gal(b1-4)[Fuc(a1-3)]GlcNAc(b1-2)[Fuc(a1-2)Gal(b1-4)[Fuc(a1-3)]GlcNAc(b1-4)]Man(a1-3)[Fuc(a1-2)Gal(b1-4)[Fuc(a1-3)]GlcNAc(b1-2)Man(a1-6)]Man(b1-4)GlcNAc(b1-4)GlcNAc
# Procedure, shortened: as §1
# [40] = target: Fuc(a1-2)Gal(b1-4)[Fuc(a1-3)]GlcNAc(b1-3)Gal(b1-4)[Fuc(a1-3)]GlcNAc
# Procedure, shortened: as §1
# [41] = target: Fuc(a1-2)Gal(b1-4)[Fuc(a1-3)]GlcNAc(b1-3)Gal(b1-4)[Fuc(a1-3)]GlcNAc(b1-3)Gal(b1-4)[Fuc(a1-3)]GlcNAc
# Procedure, shortened: as §1
# [42] = target: Fuc(a1-2)Gal(b1-4)[Fuc(a1-3)]GlcNAc(b1-3)GalNAc
# Procedure, shortened: as §1
# [43] = target: Fuc(a1-2)Gal(b1-4)[Fuc(a1-3)]GlcNAc(b1-3)[Neu5Ac(a2-6)Gal(b1-4)GlcNAc(b1-6)]Gal(b1-4)Glc
# Procedure, shortened: as §1
# [44] = target: Fuc(a1-2)Gal3S(b1-4)GlcNAc
# Procedure, shortened: as §1
# [45] = target: Fuc(a1-2)Gal6S(b1-3)GlcNAc
# Procedure, shortened: as §1
binder,measurement,setting,value
B1,glycan array binding signal (z-score),[1],0.274
same,glycan array binding signal (z-score),[2],0.009
same,glycan array binding signal (z-score),[3],-0.168
same,glycan array binding signal (z-score),[4],-0.466
same,glycan array binding signal (z-score),[5],-0.728
same,glycan array binding signal (z-score),[6],0.204
same,glycan array binding signal (z-score),[7],-0.562
same,glycan array binding signal (z-score),[8],-0.332
same,glycan array binding signal (z-score),[9],2.57
same,glycan array binding signal (z-score),[10],0.434
same,glycan array binding signal (z-score),[11],-0.336
same,glycan array binding signal (z-score),[12],-0.01
same,glycan array binding signal (z-score),[13],-0.336
same,glycan array binding signal (z-score),[14],-0.574
same,glycan array binding signal (z-score),[15],-0.142
same,glycan array binding signal (z-score),[16],-0.626
same,glycan array binding signal (z-score),[17],-0.076
same,glycan array binding signal (z-score),[18],-0.193
same,glycan array binding signal (z-score),[19],-0.408
same,glycan array binding signal (z-score),[20],0.007
same,glycan array binding signal (z-score),[21],-0.261
same,glycan array binding signal (z-score),[22],-0.343
same,glycan array binding signal (z-score),[23],-0.658
same,glycan array binding signal (z-score),[24],-0.134
same,glycan array binding signal (z-score),[25],-0.18
same,glycan array binding signal (z-score),[26],1.27
same,glycan array binding signal (z-score),[27],-0.171
same,glycan array binding signal (z-score),[28],0.441
same,glycan array binding signal (z-score),[29],-0.485
same,glycan array binding signal (z-score),[30],0.738
same,glycan array binding signal (z-score),[31],0.139
same,glycan array binding signal (z-score),[32],-0.559
same,glycan array binding signal (z-score),[33],-0.432
same,glycan array binding signal (z-score),[34],0.001
same,glycan array binding signal (z-score),[35],-0.511
same,glycan array binding signal (z-score),[36],-0.505
same,glycan array binding signal (z-score),[37],-0.617
same,glycan array binding signal (z-score),[38],0.748
same,glycan array binding signal (z-score),[39],0.154
same,glycan array binding signal (z-score),[40],0.196
same,glycan array binding signal (z-score),[41],-0.248
same,glycan array binding signal (z-score),[42],0.954
same,glycan array binding signal (z-score),[43],-0.607
same,glycan array binding signal (z-score),[44],-0.498
same,glycan array binding signal (z-score),[45],-0.571
